Test results from PubChem BioAssay (NCATS).
Inconclusive results, whose numbers are uncertain, are shown with a selection of clear calls. A potency beside an inconclusive call is a rough fit, not a confirmed value. The source made the active and inactive calls. Calls follow the shape of the dose curve; as a rule, active = well fitted inhibition curve with a large enough effect; inconclusive = small, poorly fitted or top-dose-only effect; inactive = no such curve, though single readings can be large or run the other way.

biological target: Retinaldehyde dehydrogenase 3 (Homo sapiens) (UniProt P47895); assay: qHTS for Inhibitors of the Aldehyde Dehydrogenase Family (ALDH1A3) Primary screen (AID 2061315); details: ALDH inhibition qHTS; series mostly up to 56 µM
Potency is read from the fitted curve at half-maximal effect; tags tell the direction and shape of the fitted curve.

SMILES | Potency
O=C(O)c1cccc(-c2noc(-c3ccccc3C(F)(F)F)n2)c1 | inconclusive: 3.55 µM [inhibitor, full curve]
C#CCCCn1cc(-c2cccc3c2N[C@@H](C)CC(=O)N3)cn1 | inconclusive: 1.58 µM [inhibitor, full curve, poor fit]
Cc1ccsc1CN(C)c1ncnc2ccc(-c3ccc(C(=O)N(C)C)o3)cc12 | inconclusive: 25.1 µM [inhibitor, partial curve, poor fit]
C=C1/C(=C/C=C2\CCC[C@@]3(C)C2CCC3[C@H](C)/C=C/[C@@H](O)C2CC2)C[C@@H](O)C[C@@H]1O (some centres undefined) | inconclusive: 39.8 µM [inhibitor, single point]
COC(=O)c1cccc(-c2noc(-c3ccccc3F)n2)c1 | inactive
COc1cc(NS(=O)(=O)c2ccc(C)cc2)c2ncccc2c1 | inconclusive: 20 µM [inhibitor, single point]
C[C@@H]1O[C@@H](O[C@H]2[C@@H]3C=CO[C@@H](O[C@@H]4O[C@H](CO)[C@@H](O)[C@H](O)[C@H]4O)[C@@H]3[C@@]3(CO)O[C@@H]23)[C@H](OC(=O)/C=C/c2ccc(O)c(O)c2)[C@H](O)[C@H]1O | inconclusive: 3.98 µM [inhibitor, partial curve, poor fit]
O=C(O)c1ccc(-c2noc(-c3ccc(C(F)(F)F)cc3)n2)cc1 | inconclusive: 2.51 µM [inhibitor, full curve, poor fit]
C=C1CC[C@H]2[C@@](C)(CCC(O)[C@@]2(C)CO)[C@@H]1CCC1=CCOC1=O (some centres undefined) | inconclusive: 3.16 µM [inhibitor, full curve]
